Experimental data reported in PubChem BioAssay AID686979 (National Center for Advancing Translational Sciences (NCATS), 2013).
In all, about 420,000 compounds went through this assay and about 50,000 (12%) were called active. The inconclusive results got no clear call from the source; some entries with a clear call stand among them for comparison. The call rests on the fitted dose curve; in most records, active means well fitted inhibition curve with a large enough effect; inconclusive means small, poorly fitted or top-dose-only effect; inactive means flat fitted curve, though single readings scatter. Potencies of inconclusive entries are left out as doubtful fits.

assay: qHTS for Inhibitors of human tyrosyl-DNA phosphodiesterase 1 (TDP1): qHTS in cells in presence of CPT; details: chicken DT40 Tdp1-/-;hTDP1 cells + 20 nM CPT, ATP luminescence, 48 h; activity change, negative = growth inhibition: at 46.2 µM (top of the series) unless noted; further: nearly all actives have a fitted effect of over 55% in size
Procedure, shortened: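 Chicken DT40 Tdp1-/- cells stably complemented with human TDP1 were seeded at 400 cells/well in medium containing 20 nM camptothecin, exposed to pin-transferred compounds, and grown at 37 °C for at least 48 hr. Viability was read as ATP luminescence.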
On the % scale 0 is the no-effect control and ±100 the full control effect; potency means the concentration at half of the fitted maximal effect; tags describe the fitted curve by direction and shape.

| SMILES | Potency | activity change, negative = growth inhibition |
| --- | --- | --- |
| Cc1cc(C)nc(NS(=O)(=O)c2ccc(N/C=C\C(=O)c3cccs3)cc2)n1 | inconclusive [inhibitor, single point] | – |
| Clc1cccc(Cc2c(-c3ccco3)nc3ccc(Cl)cn23)c1 | active: 20.6 µM | – |
| CCN1CCCc2cc(CN(CCN3CCOCC3)C(=S)Nc3ccc(OC)c(OC)c3)ccc21 | – | inactive: -2.57% |
| Cc1ccc(S(=O)(=O)N2CCCCC2)cc1C(=O)OCC(=O)NC(=O)NC12CC3CC(CC(C3)C1)C2 | – | inactive: -0.444% |
| CCC[C@H](CN[C@@H](CNC)[C@H](C)CC)NCCc1cc(C(F)(F)F)cc(C(F)(F)F)c1 | active: 11.6 µM | – |
| COc1ccccc1OCC(=O)Nc1cccc(-c2nc3ccccc3o2)c1 | inconclusive [inhibitor, single point] | – |
| O=C(Nc1cccc(S(=O)(=O)NC2=NCCCCC2)c1)c1cc(-c2ccco2)nc2ccccc12 | inconclusive [inhibitor, single point] | – |
| Cc1ccc(N(CC(=O)NC2CCCC2)C(=O)CCC(=O)Nc2nccs2)c(C)c1 | – | inactive: -6.88% |
| O=c1ccc2[n+]([O-])c3ccc(O)cc3oc-2c1 | inconclusive [inhibitor, single point] | – |
| COc1cccc(OCC(=O)Nc2ccccc2C(N)=O)c1 | inconclusive [inhibitor, partial curve, poor fit] | – |
| CCCCCCN1CC(=O)N2[C@@H](Cc3c([nH]c4ccccc34)C2(C)C)C1=O | inconclusive [inhibitor, single point] | – |
| COCc1cc(C)nc2sc(C(=O)N3CCN(c4ccccc4)CC3)c(N)c12 | inconclusive [inhibitor, single point] | – |
| Cc1ccc(F)c(S(=O)(=O)NC(=O)C2(C)CCN2C(=O)C2(c3ccc(Cl)cc3)CCC2)c1 (centres undefined) | active: 16.4 µM | – |
| CC1(CC(=O)N/N=C/c2cc([N+](=O)[O-])c(O)cc2O)OCCO1 | inconclusive [inhibitor, single point] | – |
| COc1ccc(S(=O)(=O)N2CCN(c3c(C)cccc3C)CC2)cc1OC | inconclusive [inhibitor, single point] | – |
| CC(C)(NS(=O)(=O)OCC(Cl)(Cl)Cl)c1ccccc1 | – | inactive: -22.7% |
| O=C(CSc1nc(=O)n2ccccc2n1)N1CCC(Cc2ccccc2)CC1 | inconclusive [inhibitor, single point] | – |
| CC1=C(C(=O)Nc2cc(-c3cccc(F)c3)[nH]n2)C2(CCCCC2)OC1=O | inconclusive [inhibitor, single point] | – |
| COc1ccc(CCNC(=O)[C@@H](NC(=O)N2CCn3c2nc2ccccc23)C(C)C)cc1OC | inconclusive [inhibitor, single point] | – |
| O=C(c1ccc(CNc2c(N3CCOCC3)c(=O)c2=O)cc1)N1CC=C(c2ccccc2)CC1 | inconclusive [inhibitor, partial curve] | – |
| Cc1ccc(Cn2ccc(NC(=O)c3noc4c3CCCCC4)n2)cc1 | inconclusive [inhibitor, single point] | – |
| Cc1ccc(C)c(NS(=O)(=O)c2cc(C(=O)NCc3ccncc3)ccc2C)c1 | – | inactive: -29.4% |
| COc1cc(CNCCc2ccccc2F)ccc1OCC(=O)N1CCCCC1 | – | inactive: 2.33% |

| SMILES | Potency | activity change, negative = growth inhibition |
| --- | --- | --- |
| O=C(Nc1c(Cl)ccc2nsnc12)c1ccc([N+](=O)[O-])o1 | inconclusive [inhibitor, partial curve, poor fit] | – |
| CCCN1C(=O)/C(=C/c2ccncc2)SC1=S | inconclusive [inhibitor, single point] | – |
| O=C(Cc1ccccc1F)Nc1ccccc1N1CCCC1 | inconclusive [inhibitor, single point] | – |
| CCOc1ccc(S(=O)(=O)NCc2csc(C)n2)cc1 | – | inactive: -27.2% |
| CCC1CN(C(=O)N2CCC(C(=O)NCc3cccc(C)c3)CC2)c2ccccc2O1 (centres undefined) | active: 16.4 µM | – |
| COc1ccc(C(O)c2ncc(-c3ccccc3OC)[nH]2)cc1 (centres undefined) | inconclusive [inhibitor, single point] | – |
| CC(C)CN(C(=O)CCCOc1ccc(Cl)cc1Cl)c1c(N)n(Cc2ccccc2)c(=O)[nH]c1=O | inconclusive [inhibitor, single point] | – |
| CCc1nc2c(OCc3ccccc3C(=O)OC)cccn2c1N(C)C(=O)Nc1ccccc1OC | inconclusive [inhibitor, single point] | – |
| O=C(c1nc[nH]c1C(=O)N1CCN(c2ccccc2)CC1)N1CCN(c2ccccc2)CC1 | active: 13 µM | – |
| CCCCNC(=O)N(O)C1N(/N=C/c2ccccc2F)C(=S)SC1(C)C (centres undefined) | – | inactive: -26.7% |
| COc1ccc(-c2ccc(C(=O)NCc3ccc(F)c(F)c3)c3occc23)c(C)c1 | inconclusive [inhibitor, single point] | – |
| Cc1cc(C)n(-c2nnc(C)n2/N=C/c2ccc(O)cc2)n1 | – | inactive: 3.07% |
| CCCCC(CC)CNC(=O)CN1C(=O)CSc2ccc(S(=O)(=O)N3CCOCC3)cc21 (centres undefined) | active: 16.4 µM | – |
| CCOc1ccccc1N1CCN(C(=O)CNC(=O)c2sc3ccccc3c2Cl)CC1 | inconclusive [inhibitor, single point] | – |
| O=C(Nc1ccc(Br)cc1)c1cc(Br)c(Br)s1 | inconclusive [inhibitor, single point] | – |
| Cc1cc(C)c(C(=O)OCc2csc(CC(=O)Nc3ccccc3C)n2)c(C)c1 | inconclusive [inhibitor, single point] | – |
| COc1ccccc1NC(=O)Nc1ccc(C)cn1 | – | inactive: -9.69% |
| CC1C/C(=N\NC(=S)NCc2ccccc2)CC(C)(C)C1 (centres undefined) | inconclusive [inhibitor, single point] | – |
| COc1cc(-c2csc(NC3CCCCC3)n2)cc(OC)c1OC | inconclusive [inhibitor, partial curve, poor fit] | – |
| Cc1sc2nc3c(C(=O)N4CCCC4)cc(C(=O)c4ccccc4O)cn3c(=O)c2c1C | inconclusive [inhibitor, single point] | – |
| COc1ccc(-c2csc(CCn3nc(C)cc3C)n2)cc1OC | inconclusive [inhibitor, single point] | – |
| Cn1ncc2c(NCc3ccccc3)ncnc21 | inconclusive [inhibitor, single point] | – |
| Oc1ccc(Br)cc1/C=N/N1CCCCC1 | inconclusive [inhibitor, single point] | – |

| SMILES | Potency | activity change, negative = growth inhibition |
| --- | --- | --- |
| COc1ccc(CNC(=O)c2c3c(nc4ccccc24)C(=O)N(C2CCCCC2)C3)c(OC)c1 | – | inactive: -1.85% |
| COC(=O)c1scc(-c2ccc(C)cc2)c1S(=O)(=O)Nc1cc(OC)c(OC)c(OC)c1 | active: 20.6 µM | – |
| COc1ccc(NC(=O)c2cc(C3CCCCN3C(=O)c3ccc(C#N)cc3)on2)c(C)c1 (centres undefined) | inconclusive [inhibitor, full curve, poor fit] | – |
| CCCc1c(C)[nH]c2ccccc2c1=O | inconclusive [inhibitor, single point] | – |
| N=C1/C(=C\c2ccc(-c3cc(Cl)cc(Cl)c3)o2)C(=O)N=C2SC=C(c3ccccc3)N12 | inconclusive [inhibitor, single point] | – |
| CCOc1ccccc1NC(=O)CCc1ccc(C)o1 | – | inactive: 17% |
| OC(Cn1cncn1)c1ccc(Cl)cc1Cl (centres undefined) | – | inactive: -15.7% |
| Nc1cc(S(=O)(=O)Nc2cc(Cl)ccc2Cl)ccc1N1CCOCC1 | inconclusive [inhibitor, single point] | – |
| Cc1ccc(C)c(NC(=O)CN(C)C(=O)/C=C/c2ccco2)c1 | – | inactive: 0.0505% |
| O=C(CNC(=O)c1ccccc1F)NCCN1C(=O)S/C(=C\c2ccccc2Cl)C1=O | – | inactive: -26.4% |
| CN(CCc1ccccn1)C(=O)c1ccc(OC2CCN(CCc3ccccc3)CC2)cc1 | inconclusive [inhibitor, single point] | – |
| N#CC1(Cc2ccc([N+](=O)[O-])cc2)c2ccccc2C=CN1C(=O)c1ccccc1 (centres undefined) | inconclusive [inhibitor, single point] | – |
| O=C(Cn1cc(S(=O)(=O)Cc2cccc(Cl)c2)c2ccccc21)NCCc1ccccc1 | – | inactive: -10.5% |
| CCOC(=O)c1cc2c(C)n(-c3ccc(OCC)cc3)c(C)c2cc(C(=O)OCC)c1=O | inconclusive [inhibitor, single point] | – |
| CCn1c2ccccc2c2cc(N=C3SC(CC(=O)Nc4ccccc4OC)C(=O)N3CCOC)ccc21 (centres undefined) | inconclusive [inhibitor, single point] | – |
| COC(=O)[C@]1(C)CCC[C@@]2(C)C3CC[C@@]4(C)C[C@]3(CCC21)CC(=O)N4 (some centres undefined) | inconclusive [inhibitor, single point] | – |
| COc1ccc(NC(=O)N2CCN(c3ccc([N+](=O)[O-])cc3)CC2)cc1OC | inconclusive [inhibitor, single point] | – |
| CCCc1c(C(=O)Nc2ccc(OC)cc2)cnn1-c1ccccc1 | – | inactive: -18.5% |
| O=C(N/N=C/c1ccc(Cl)c([N+](=O)[O-])c1)c1cc(-c2ccccc2)nc2ccccc12 | active: 6.51 µM | – |
| COc1ccc(CN2CCN(S(=O)(=O)c3ccccc3)CC2)cc1Br | inconclusive [inhibitor, single point] | – |
| CSc1ccc(N=Nc2c(C)[nH]n(C)c2=O)cc1 | – | inactive: 4.01% |
| CCOc1ccccc1C(=O)NC1CC2CCCC(C1)N2Cc1ccc(C)cc1 (centres undefined) | inconclusive [inhibitor, single point] | – |
| CCN(c1cccc(C)c1)S(=O)(=O)c1ccc2[nH]cc(C(=O)NCCCOC)c(=O)c2c1 | – | inactive: -25.1% |
